Data taken from the supplement of paper PMC4967469.

Compound: CCc1nc(-c2cccc(C)c2)c(-c2ccnc(NC(=O)c3ccccc3)c2)s1 [TAK-715]
Assay: Viability of human cancer cell lines after 72 h of drug (GDSC screen)
Details: top dose inferred
Description: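 Human cancer cell lines in 384-well plates, medium with 10% serum, drug for 72 h over a 256-fold dose range (nine 2-fold or five 4-fold steps up to the top dose). Adherent lines were fixed and stained with the nucleic acid dye Syto60, suspension lines read with resazurin; signal relative to control wells, capped at 0 and 100%. One two-parameter sigmoid per drug and line, fitted in a mixed model over all curves with the slope shared within a line.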

Row | Cell Line | AUC | pIC50
1 | SJRH30 (rhabdomyosarcoma, adherent, top dose 20 µM) | 0.896 | < 4.70
2 | SJSA-1 (bone, adherent, top dose 20 µM) | 0.964 | < 4.70
3 | SK-CO-1 (large intestine, adherent, top dose 20 µM) | 0.988 | < 4.70
4 | SK-ES-1 (Ewing sarcoma, semi-adherent, top dose 20 µM) | 0.936 | < 4.70
5 | SK-GT-4 (oesophagus, adherent, top dose 20 µM) | 0.972 | < 4.70
6 | SK-HEP-1 (liver, adherent, top dose 20 µM) | 0.968 | < 4.70
7 | SK-LMS-1 (soft tissue, adherent, top dose 20 µM) | 0.91 | < 4.70
8 | SK-LU-1 (lung adenocarcinoma, adherent, top dose 20 µM) | 0.959 | < 4.70
9 | SK-MEL-1 (melanoma, suspension, top dose 20 µM) | 0.958 | < 4.70
10 | SK-MEL-2 (melanoma, adherent, top dose 20 µM) | 0.955 | < 4.70
11 | SK-MEL-3 (melanoma, adherent, top dose 20 µM) | 0.963 | < 4.70
12 | SK-MEL-5 (melanoma, adherent, top dose 20 µM) | 0.938 | < 4.70
13 | SK-MEL-24 (melanoma, adherent, top dose 20 µM) | 0.946 | < 4.70
14 | SK-MEL-28 (melanoma, adherent, top dose 20 µM) | 0.983 | < 4.70
15 | SK-MEL-30 (melanoma, adherent, top dose 20 µM) | 0.947 | < 4.70
16 | SK-MES-1 (lung squamous cell carcinoma, adherent, top dose 20 µM) | 0.895 | < 4.70
17 | SK-MG-1 (glioma, adherent, top dose 20 µM) | 0.987 | < 4.70
18 | SK-MM-2 (myeloma, suspension, top dose 20 µM) | 0.868 | 4.71
19 | SK-N-AS (neuroblastoma, adherent, top dose 20 µM) | 0.952 | < 4.70
20 | SK-N-DZ (neuroblastoma, adherent, top dose 20 µM) | 0.942 | < 4.70
21 | SK-N-FI (neuroblastoma, adherent, top dose 20 µM) | 0.943 | < 4.70

Row | Cell Line | AUC | pIC50
22 | SK-N-SH (neuroblastoma, adherent, top dose 20 µM) | 0.948 | < 4.70
23 | SK-OV-3 (ovary, adherent, top dose 20 µM) | 0.884 | < 4.70
24 | SK-PN-DW (Ewing sarcoma, adherent, top dose 20 µM) | 0.936 | < 4.70
25 | SK-UT-1 (soft tissue, adherent, top dose 20 µM) | 0.973 | < 4.70
26 | SKG-IIIa (cervix, adherent, top dose 20 µM) | 0.97 | < 4.70
27 | SKN (uterus, adherent, top dose 20 µM) | 0.949 | < 4.70
28 | SKN-3 (head and neck, adherent, top dose 20 µM) | 0.983 | < 4.70
29 | SLVL (B-cell lymphoma, suspension, top dose 20 µM) | 0.78 | 5.06
30 | SN12C (kidney, adherent, top dose 20 µM) | 0.944 | < 4.70
31 | SNB75 (glioma, adherent, top dose 20 µM) | 0.974 | < 4.70
32 | SNG-M (endometrium, adherent, top dose 20 µM) | 0.918 | < 4.70
33 | SNU-61 (large intestine, adherent, top dose 20 µM) | 0.949 | < 4.70
34 | SNU-81 (large intestine, adherent, top dose 20 µM) | 0.94 | < 4.70
35 | SNU-175 (large intestine, suspension, top dose 20 µM) | 0.837 | 4.91
36 | SNU-182 (liver, adherent, top dose 10.24 µM) | 0.944 | < 4.99
37 | SNU-387 (liver, adherent, top dose 20 µM) | 0.984 | < 4.70
38 | SNU-398 (liver, adherent, top dose 20 µM) | 0.832 | 4.87
39 | SNU-407 (large intestine, adherent, top dose 20 µM) | 0.919 | < 4.70
40 | SNU-423 (liver, adherent, top dose 20 µM) | 0.905 | < 4.70
41 | SNU-449 (liver, adherent, top dose 20 µM) | 0.81 | 4.93
42 | SNU-475 (liver, adherent, top dose 20 µM) | 0.978 | < 4.70

pIC50: −log10 of the molar value. By IC50 is meant the dose at which the fit gives 50% viability; where the fit passes the top or lowest dose, that dose stands as a limit. The AUC spans the tested range (256-fold, ending at the top dose) of the same fit; values near 1 show little effect. A top dose marked as inferred comes from the curve model; the source does not state it.
